Values joined by “and” are separate entries in the source; they are usually repeats but may differ in a detail not shown here. Equal values may be shown once. Whole data set: some 13,000 compounds, median “IFI” near 4, cut for the highest 2% near 17. Some of the results follow.
assay: GSK_TCMDC: Inhibition Frequency Index (IFI). The number of non-kinase HTS assays where a compound showed > 50 % inhibition, expressed as a percentage of the number of such assays in which the compound was tested (-0 is zero); type: functional

Structure (SMILES)	IFI
Cc1cccc2nc(-c3ccc(-c4ccc(CNCC(C)C)cc4)cc3)[nH]c12	7%
Cc1noc(C)c1-c1ccc2c(Nc3ccccc3C(C)(C)C)c(C(=O)NCc3ccc(C(F)(F)F)cc3)cnc2c1	3.45%
CC(C(=O)N1CCCC1)N1CCN(C(c2ccccc2)c2ccccc2)CC1 (centres undefined)	0.76%
Cc1cc(N(C)CCN(C)C)nc(Nc2ccc(Cl)cc2)n1	1.2%
COc1cc(Cc2cnc(N)nc2N)cc(OCCCCC2NC(=O)NC2=O)c1OC (centres undefined)	0%
Cc1cc(OCCCN2CCCC2)ccc1NC(=O)COc1ccc(Cl)cc1C(=O)c1cc(C#N)cc(C(F)(F)F)c1	7.91%
COc1ccc(Cl)cc1C(=O)Nc1ccc(-c2nc3ccccc3[nH]2)cc1	6.52%
CN(C)c1ccc(CN2CCC(CNC(=O)c3cc(-c4cccc(C(F)(F)F)c4)cs3)C2)cc1 (centres undefined)	8.16%
CC(C)n1c(C(C)(C)C)cc2c3c(N)nc(N)nc3ccc21	4.24%
COc1ccc(Nc2nc(NCc3ccco3)c3ccccc3n2)cc1	9.77%
O=C(Nc1ccc(Cl)cc1)c1cccc(CN2CCCN(Cc3cccc(O)c3)CC2)c1	6.43%
O=C(/C=C/c1ccc(Cl)c(Cl)c1)NC1CCN(Cc2cccc(O)c2)CC1	0.67%
C=CCn1c(SCC(=O)Nc2cc(C)ccc2OC)nc2sc(C)cc2c1=O	3.42%
Cc1cccc(C)c1N1CCN(C2CCC(NC(=O)c3cc4ccccc4[nH]3)CC2)CC1 (centres undefined)	13.2%
CCOc1ccc(C(C)NC(=O)Nc2ccccc2)cc1OCC (centres undefined)	-0%
CC(C)(C)c1ccc(NC(=O)c2ccc(CN3CCCN(Cc4ccc(F)cc4)CC3)cc2)cc1	15.6%
FC(F)(F)Oc1ccc(-c2cnc3ccc(NCc4ccncc4)nn23)cc1	1.53%
COc1ccc(Cn2c(Nc3cccc(C(F)(F)F)c3)nc3ccc(C(=O)NCCN4CCCC4)cc32)cc1Cl	3.62%
CCCCNC(=O)[C@H](CC1CCCCC1)NC(=O)c1ccc(O)c(-c2cccc(C(F)(F)F)c2)c1	2.19%
Cc1ccc(N2CCN(CCCCNC(=O)c3ccc(NC(=O)c4ccc(Cl)cc4)cc3)CC2)c(C)c1	4.31%

Structure (SMILES)	IFI
Cc1cc(N(C)C2CCN(C)C2)nc(Nc2ccc(Cl)cc2)n1 (centres undefined)	2.38%
CC(Cc1ccc(C(=O)Nc2ccc(CC(C)NCCc3cccc(Cl)c3)cc2)cc1)NCCc1ccc(C(F)(F)F)cc1 (centres undefined)	13.1%
CC(C)(CNC(=O)C1CCN(CCOCc2ccccc2)CC1)c1nc(-c2ccc(Cl)c(O)c2)c(-c2ccncc2)[nH]1	2.21%
CC(C)CNCc1cccc(-c2cccc(CNC3CCN(Cc4ccccc4)CC3)c2)c1	7.14%
Oc1cc2ccccc2cc1CNC1CCCCC1	0%
COc1ccc(OCCn2cc(C(=O)c3ccco3)c3ccccc32)cc1	5.61%
OC1CCCN(Cc2ccc(-c3cccc(-c4nc5ccccc5[nH]4)c3)cc2)C1 (centres undefined)	-0%
O=c1[nH]ccc2nc(N[C@@H]3CCNC3)nc(Nc3ccc4c(c3)S(=O)(=O)CC4)c12	0%
Cc1cccc2nc(-c3ccc(-c4cccc(CNCc5ccc(S(C)(=O)=O)cc5)c4)s3)[nH]c12	4.81%
Cc1nc2c(c(O)c1Cl)-c1ccc(Oc3cccc(C(F)(F)F)c3)cc1C2=O	11.9% and 13.9%
CC(C)(C)c1ccc(NC(=O)c2ccc(CN3CCCN(Cc4cccc(F)c4)CC3)cc2)cc1	14.6%
CC(Cc1ccc(NC(=O)c2ccc(CNCCc3ccccc3)cc2)cc1)NCCc1cccc(Cl)c1 (centres undefined)	9.86%
CC(C)CCNC(=O)C1Cc2c([nH]c3ccc(Br)cc23)C2(CCN(CCc3ccccc3)CC2)N1 (centres undefined)	5.67%
CNC(=O)c1cnc(Nc2ccc(N3CCN(C)CC3)cc2)nc1Nc1cccc(OC)c1	4.48%
CCCCCCN(CCCCCC)CC(O)c1cc(-c2ccc(Cl)cc2)nc2c(C)cc(C)cc12 (centres undefined)	3.55%
Cc1ccc2[nH]c(C)c(Br)c(=O)c2c1	0.89%
Cc1nc(NCc2ccccc2)cc(NCC(O)c2ccc(O)cc2)n1 (centres undefined)	-0%
Cc1n[nH]c(C)c1C1CCN(CC2CCC(NC(=O)/C=C/c3ccc(Cl)c(Cl)c3)CC2)CC1 (centres undefined)	0.72%
CN1CCN(Cc2ccc(OCc3cccc(COc4ccc(CN5CCN(C)CC5)cc4I)c3)c(I)c2)CC1	10.5%
Cc1cccc2c3c([nH]c12)C1(CCN(Cc2ccccc2)CC1)NC(C(=O)NCc1ccccc1)C3 (centres undefined)	2.27%

Structure (SMILES)	IFI
CCN(CC)C(=O)C(=O)c1c[nH]c2ccc(Cl)cc12	-0%
O=C(NC1CCCCC1)c1csc(C2CCCN(C(=O)c3ccc(O)c(-c4cccc(C(F)(F)F)c4)c3)C2)n1 (centres undefined)	3.01%
COc1cccc(-c2csc(C(=O)NC3CCCCN(Cc4ccc(C(C)(C)C)cc4)C3)c2)c1 (centres undefined)	3.64%
CC(C)Nc1ccc(Nc2ccnc3cc4ccccc4cc23)cc1	8.82%
Cc1ccccc1NC(=O)NC1CCN(CCCCCNC(=O)/C=C/c2ccc(Cl)c(Cl)c2)CC1	2.68%
CCC(=O)Nc1ccc(C(O)CN2CCC3(C=Cc4ccccc4O3)CC2)cc1 (centres undefined)	4.76%
CCOc1ccc2c(=NN=Cc3cccc(F)c3)cc(C)[nH]c2c1	1.35%
COc1cc2nc(N3CCN(c4cc(C)ccc4C)CC3)nc(N)c2cc1OC	14%
Cc1c(CN2CCC(N3CCC(C(=O)NC4CC4)CC3)CC2)[nH]c2c(Cl)cccc12	-0%
Clc1cc(Cl)c2cc(CNCCCNc3ccc4ccccc4n3)[nH]c2c1	14.8%
c1cc(OCCN2CCCC2)ccc1CNC1CCN(CC2CCCCC2)CC1	4%
COCCOc1cccc(CN2CCC(c3cc4nc(C)cc(C(F)(F)F)n4n3)C2)c1 (centres undefined)	6.98%
Cc1cc(NC(=O)NCCN2CCC(NS(=O)(=O)c3ccc(Br)cc3)C2)c2ccccc2n1 (centres undefined)	1.75%
COc1cc(O)c2c(=O)c(OC)c(-c3cccc(Cl)c3OC3O[C@H](CO)[C@@H](O)[C@H](O)[C@H]3O)oc2c1OC (some centres undefined)	0%
CC(C(=O)NC1CCN(c2ccnc(Nc3ccc(F)cc3)n2)C1)c1ccc(Cl)cc1 (centres undefined)	10.4%
Cc1cc(C(=O)Nc2ccc3c(c2)CCN3C2CCN(Cc3cc(F)cc(F)c3F)C2)no1 (centres undefined)	3.13%
COc1cccc(-c2cnc(N)c(-c3nc4cc(Cl)c(F)cc4[nH]3)c2)c1	3.08%
CC(=O)Nc1ccc(Nc2c3ccccc3nc3ccccc23)cc1	6.25%
O=C(Nc1ccc(-c2nc3ccccc3[nH]2)cc1)c1ccc([N+](=O)[O-])s1	1.43%

Source: ChEMBL document CHEMBL1157539, “Thousands of chemical starting points for antimalarial lead identification” (Nature, 2010)
